Test results: PubChem BioAssay AID1347073 (National Center for Advancing Translational Sciences (NCATS), 2019)
The whole screen tested about 45,000 compounds, of which about 200 (0.44%) were called active. Inconclusive results (about 7%) are left out. Calls come from the whole dose curve; as a rule, active = well fitted activation curve with a large enough effect; inconclusive = small, poorly fitted or top-dose-only effect; inactive = no such curve, though single readings can be large or run the other way. The list shows a part of the results.

assay: qHTS of TDP-43 Inhibitors: NCGC Sytravon Library Screen; conditions: yeast TDP-43 toxicity rescue, BacTiter-Glo growth, 24 h; series mostly up to 46.1 µM; growth rescue (activation): at the top concentration; note: 0% is about no effect; nearly all actives have a fitted effect of over 55% in size
Procedure, shortened: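 TDP-43-expressing yeast, pregrown in raffinose, seeded at OD600 0.02 in galactose medium with compound for 24 hr at 30 deg C. Growth read by BacTiter-Glo luminescence, so rescue of toxicity appears as activation.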

| SMILES | growth rescue (activation) |
| --- | --- |
| CN(C)c1ccc(-c2cc(NC=O)c3ncc(-c4ccc(F)c(Cl)c4)n3c2)cc1 | inactive: 26.3% |
| CN1CCN(c2ccc(NC(=O)c3ccc4ccccc4c3)cc2)CC1 | inactive: -10.6% |
| CN(C(=O)n1cnc2ccccc21)c1ccccc1 | inactive: 24.2% |
| O=C(c1cc(=O)[nH]c2ccccc12)N1CCN(c2ccc([N+](=O)[O-])cc2)CC1 | inactive: 30.5% |
| COc1ccc([N+](=O)[O-])cc1NS(=O)(=O)c1cccc(C(=O)O)c1 | inactive: 23.1% |
| O=[N+]([O-])c1cccc(Oc2cnccn2)c1 | inactive: 14.1% |
| O=c1c2ccccc2c(C=Nc2cccc(S(=O)(=O)NCc3ccco3)c2)c(O)n1-c1ccc(Cl)cn1 | inactive: 5.26% |
| COc1ccccc1-c1c(C)nn2c(C(F)(F)F)cc(-c3ccccc3)nc12 | inactive: 17.5% |
| COc1ccc(CNC(=O)CCN2C(=O)c3ccncc3C2=O)cc1OC | inactive: -3.63% |
| CC(C)Nc1ncnc2ccc(Br)cc12 | inactive: 6.76% |
| COc1cccc(C(=O)N(Cc2cccc(Cl)c2)Cc2ccco2)c1 | inactive: 2.1% |
| O=C(COC(=O)c1ccc(O)cc1)Nc1cccc(S(=O)(=O)NC2=NCCCCC2)c1 | inactive: 7.19% |
| c1ccc(-c2nc(NCCCn3ccnc3)c3ccccc3n2)cc1 | inactive: -9.22% |
| Cc1ccc(S(=O)(=O)Nc2cc(=O)[nH]c(SCC(=O)Nc3ccccc3C(F)(F)F)n2)cc1 | inactive: 17.4% |
| Cc1ccc(C(=O)O)cc1-n1c(C)cc(C=O)c1C | inactive: 17.4% |
| COc1ccc(S(=O)(=O)Nc2ccccc2N2CCOCC2)cc1[N+](=O)[O-] | inactive: 9.56% |
| CC(=O)c1cccc(NC(=O)/C(=C\c2cccnc2)NC(=O)c2ccco2)c1 | inactive: 1.03% |
| O=C(CSc1nnc(-c2ccccc2Cl)o1)N1CCCC1 | inactive: 5.53% |
| COc1ccc(C2c3ccc4ccccc4c3Oc3ncn(CCN(C)C)c(=N)c32)cc1 (configuration not stated) | inactive: 3.31% |
| O=C(COC(=O)CCc1ccc(S(=O)(=O)N2CCOCC2)cc1)Nc1ccccc1OC(F)F | inactive: 13.3% |
| O=C(Nc1cc(S(=O)(=O)Nc2ccc(Cl)cc2)ccc1N1CCCCC1)c1ccc(F)cc1Cl | inactive: 10.1% |
| Cc1ccc(CN2CC(C(=O)Nc3ccc(F)c([N+](=O)[O-])c3)CC2=O)cc1 (configuration not stated) | inactive: -13.8% |

| SMILES | growth rescue (activation) |
| --- | --- |
| CCCC(C(=O)NC1CCCC1)N(Cc1ccc(OC)cc1)C(=O)c1snc(C(N)=O)c1N (configuration not stated) | inactive: 8.08% |
| NC(=O)CCN1CCN(Cc2nc(C(c3ccccc3)c3ccccc3)no2)CC1 | inactive: -9.75% |
| CNc1nc(Cl)nc(NC(C)(C)C)n1 | inactive: 5.94% |
| COc1ccccc1-c1cc(C(=O)N2CCOCC2)no1 | inactive: 15.1% |
| Cc1cccc(C)c1NC(=O)N1CCC(C(=O)c2ccc(F)cc2)CC1 | inactive: 33.9% |
| COC(=O)c1ccc(C(=O)Nc2ccc(N)cc2N)cc1 | inactive: 8.19% |
| CC(C)c1ccc(NC(=O)CNC(=O)Cn2ccc3ccccc3c2=O)cc1 | inactive: 6.31% |
| O=[N+]([O-])c1ccccc1S(=O)(=O)N1CCN(Cc2cc3c(cc2O)OCO3)CC1 | inactive: 8.34% |
| Cc1ccc(NC(=O)Cn2nnc3ccccc32)cc1 | inactive: 8.34% |
| COc1ccc(CN(Cc2ccc(C(=O)O)cc2)C(=S)Nc2cc(C)cc(C)c2)cc1OC | inactive: 4.23% |
| CC1CCN(c2ccccc2NC(=O)c2ccc(C#N)cc2F)CC1 | inactive: -0.863% |
| O=C(COc1ccc(F)cc1)c1ccc2c(c1)CCCC2 | inactive: 20.1% |
| Cc1ccc(S(=O)(=O)N2CCOCC2)cc1C(=O)NCCc1ccc(Cl)cc1 | inactive: -0.373% |
| Cc1onc(-c2c(Cl)cccc2Cl)c1C(=O)NC1C(=O)N2C1SC(C)(C)C2C(=O)O (configuration not stated) | inactive: 4.36% |
| COc1ccc(N(CC(=O)Nc2cccc(C)c2C)S(=O)(=O)c2c(C)[nH]c(=O)[nH]c2=O)cc1 | inactive: 30.9% |
| COc1ccc(NC(=O)CCNC(=O)c2ccco2)c(OC)c1 | inactive: -8.03% |
| CCCc1nc2sc3c(c2c(=O)n1N)CCC3 | inactive: 17.3% |
| Cc1cc(C)cc(NC(=O)COC(=O)COc2ccc(N(C)S(=O)(=O)c3cccs3)cc2)c1 | inactive: 13.6% |
| Cn1c(C(=O)N2CCCC(C(=O)c3ccc(C(F)(F)F)cc3)C2)cc(=O)n(C)c1=O (configuration not stated) | inactive: 11.8% |
| C=CC[N+]1(CC#Cc2ccccc2)CCCC1 | inactive: 1.2% |
| Fc1cccc(NC(=S)N2CCCC2)c1 | inactive: -1.99% |
| O=C(NC(=S)NC1CCSC1=O)c1cccs1 (configuration not stated) | inactive: 3.35% |

| SMILES | growth rescue (activation) |
| --- | --- |
| Cc1sc2nc(CSCC(=O)Nc3c(Cl)cccc3Cl)[nH]c(=O)c2c1C | inactive: 12.1% |
| C/C(=N\Nc1cccc(Cl)c1)c1ccc(-n2ccnc2)cc1 | inactive: -3.56% |
| N#Cc1c(SCC(=O)O)nc(N2CCOCC2)c2c1CCCC2 | inactive: 18.1% |
| CN(C)S(=O)(=O)c1cccc(NC(=O)CCCSc2ccccc2)c1 | inactive: 18.5% |
| CCOc1ccccc1N(CC(=O)NCc1ccncc1)S(=O)(=O)c1ccccc1 | inactive: -2.92% |
| Nc1nc(SCC(=O)Nc2cccnc2Cl)n[nH]1 | inactive: 6.17% |
| CC(C)Oc1ccc(C(=O)Nc2ccc(N3CCN(C(=O)c4ccco4)CC3)cc2)cc1 | inactive: 9.73% |
| N#Cc1ccccc1Cn1c(=O)n(-c2ccc(F)c(Cl)c2)c(=O)c2sccc21 | inactive: 2.34% |
| CSc1ccccc1NC(=O)CSc1cccc[n+]1[O-] | inactive: -26.4% |
| O=C(C1=C(Nc2ccccc2)c2ccccc2S(=O)(=O)N1)c1ccccc1 | inactive: 8.23% |
| S=c1nc[nH]c2c1[nH]c1ccc(Cl)cc12 | inactive: 4.07% |
| Cn1c(=O)n(C)c2cc([N+](=O)[O-])c(N3CCN(C(=O)c4ccc(F)cc4)CC3)cc21 | inactive: 10.1% |
| COc1ccccc1-c1c(NC(=O)c2ccco2)n(C)c2ccccc2c1=O | inactive: 8.58% |
| CCC(C)NC(=S)N(CCc1ccccc1)Cc1cc2cc(OC)c(OC)cc2[nH]c1=O (configuration not stated) | inactive: 26.9% |
| CCN(CC)C(=O)CN1CCN(Cc2ccc3c(c2)OCO3)CC1 | inactive: -3.03% |
| Cc1noc(NS(=O)(=O)c2ccc(NC(=O)c3cc4ccccc4o3)cc2)c1C | inactive: 25.9% |
| O=C(COC(=O)Cn1cnc2ccccc2c1=O)NNC(=O)c1ccc(Br)cc1 | inactive: 10.6% |
| O=C(Nc1ccnn1C1CCN(C2CCC2)CC1)c1ccccc1 | inactive: -10.9% |
| COc1ccc(C(C)(O)c2nc(-c3ccc(Cl)cc3)cs2)cc1 (configuration not stated) | inactive: 2.07% |
| CCCCN(C)c1c(C)nc2ccc(C(=O)N(CC)CCN(C)C)cn12 | inactive: 7.86% |
| Cc1ccccc1CN(C)C(=O)c1ccc2ccccc2n1 | inactive: 24.3% |
| Cc1cc(C(C)(C)C)cc(C)c1CCNC(=O)c1ccc[n+]([O-])c1 | inactive: 12.8% |

| SMILES | growth rescue (activation) |
| --- | --- |
| O=C(CCN1C(=O)S/C(=C/c2ccc(Cl)cc2)C1=O)N1CCOCC1 | inactive: 10% |
| CCSc1nnc(NC(=O)[C@@H](NC(=O)c2ccccc2)C(C)C)s1 | inactive: 8.89% |
| COc1ccc(NC(=O)CCSc2ccc(C)cc2)cc1 | inactive: 25.6% |
| CCN(CC(=O)NC1CCS(=O)(=O)C1)S(=O)(=O)c1ccc(F)cc1 (configuration not stated) | inactive: 6.94% |
| COc1cc(NC(=O)COc2ccc(Cl)cc2)ccc1NC(=O)C(C)C | inactive: 21.1% |
| CC(NC(=O)C1CCCN1S(=O)(=O)c1ccc2c(c1)n(C)c(=O)c(=O)n2C)c1ccccc1 (configuration not stated) | inactive: -16.3% |
| CN1CCCN(C(=O)CNC(=O)c2ccc(Cl)cc2Cl)CC1 | inactive: 0.285% |
| CC(=O)c1ccc(NC(=O)c2cccc(N3C(=O)c4ccccc4C3=O)c2)cc1 | inactive: -17.4% |
| NNc1nc(N)c2c(n1)-c1ccccc1CC21CCCC1 | inactive: 13.9% |
| COc1ccc2cc(C(=O)NCc3ccccc3)c(=Nc3ccc(C(=O)O)cc3)oc2c1 | inactive: 9.87% |
| O=c1[nH]n(-c2ccccc2Cl)c(=O)c2ccccc12 | inactive: 1.47% |
| Cc1cc(SCC(=O)Nc2ccc3[nH]c(=O)[nH]c3c2)nc2ccccc12 | inactive: -2.97% |
| Cc1nc2ccccc2nc(C)c1=NOCc1ccc(C#N)cc1 | inactive: -7.72% |
| O=C(CSc1n[nH]c(-c2cccnc2)n1)Nc1ccc([N+](=O)[O-])cc1 | inactive: 13.6% |
| Cc1ccc(CNC(=O)C(Cc2ccccc2)n2cccc2)cc1 (configuration not stated) | inactive: 13.3% |
| COc1cc(C(=O)NC2CCN(CC(=O)NC3CCCCC3C)CC2)cc(OC)c1OC (configuration not stated) | inactive: 10.9% |
| CCn1c(COc2ccc(C)cc2)nnc1SCC(=O)NCc1ccco1 | inactive: 1.4% |
| CC(=O)c1ccc(NC(=S)N(CCCN(C)C)Cc2ccccc2)cc1 | inactive: 4.43% |
| CC(CC(=O)N1CCN(c2ccccc2)CC1)c1ccccc1 (configuration not stated) | inactive: 8.23% |
| Cc1cc(C)c(NC(=O)CCCCCNC2CCCCC2)c(C)c1 | inactive: -3.38% |
| CCC(O)C1CCN(C(=O)c2cc(COc3ccc4ncccc4c3)on2)CC1 (configuration not stated) | inactive: 8.3% |
| O=C(CN1CCCN(S(=O)(=O)c2ccc(F)cc2)CC1)Nc1c(Cl)cccc1Cl | inactive: -3.3% |

| SMILES | growth rescue (activation) |
| --- | --- |
| COc1ccc(Cl)cc1N(CC(=O)N1CCCC1)S(=O)(=O)c1ccc(C)cc1 | inactive: -0.61% |
| Cc1ccccc1OCCNC(=O)c1ccco1 | inactive: 21.8% |
| O=C(COC(=O)c1ccc(S(=O)(=O)N2CCCC2)cc1)NCc1ccco1 | inactive: 18.1% |
| COc1ccc(NC(=O)CCCNC(=O)c2ccc(Cl)cc2)c(OC)c1 | inactive: 0.427% |
| NS(=O)(=O)c1ccc(CCNC(=O)C(c2ccccc2)c2ccccc2)cc1 | inactive: 3.31% |
| CCc1ccccc1NC(=S)N(CCN1CCOCC1)C1CCN(C(C)=O)CC1 | inactive: -5.95% |
| CCn1cc(C(=O)NCc2ccc(Cl)cc2)c(=O)c2cc(S(=O)(=O)N(C)C)ccc21 | inactive: 8.8% |
| Cc1cc(C=O)c(C)n1-c1ccc(Oc2ccc([N+](=O)[O-])cn2)cc1 | inactive: 3.7% |
| Cc1nnc(SCc2nc3sc4c(c3c(=O)[nH]2)CCCC4)n(N)c1=O | inactive: 6.65% |
| Cc1nc(Cn2c3ccc(NC(=S)NC4CCCCC4)cc3c(=O)n2C)cs1 | inactive: 1.98% |
| COc1ccc(Cl)cc1NC(=O)CCN1C(=O)C2C3C=CC(C4CC34)C2C1=O (configuration not stated) | inactive: 20.9% |
| O=C(CN1C(=O)NC2(CCCC2)C1=O)NCc1ccc(F)cc1 | inactive: 4.48% |
| O=C(NC(=S)Nc1nc2ccccc2s1)c1ccco1 | inactive: 7.6% |
| CC(C)c1ccc(/C=N/N2CCN(c3ccccn3)CC2)cc1 | inactive: 21.6% |
| COC(=O)C1CC(=O)N(Cc2ccccc2)C1 (configuration not stated) | inactive: 7.05% |
| CSc1ncccc1C(=O)Nc1ccc2c(c1)OCCO2 | inactive: 16% |
| COc1ccccc1NC(=O)Nc1ccc2c(c1)nnn2C | inactive: -8.22% |
| COC(=O)c1ccc(N2C(=O)c3cc(N4CCOCC4)c([N+](=O)[O-])cc3C2=O)cc1 | inactive: -14% |
| CCOc1ccc(S(=O)(=O)Nc2cnc3ccccc3c2)cc1 | inactive: 19.9% |
